About 21,000 targets were measured; listed, in parts, are those with the largest changes and a random draw of the rest.
Compound: CC1Cc2ccccc2N1C(=O)C1CCCN(C1)C(=O)CCl (mixture of isomers) [TRIM25 ligand 11 (diastereomer mixture)]
Assay: probe-labelled cysteine peptide fold change vs DMSO (competition) (log2 fold change); higher = less target engagement (more negative = stronger competition)
Conditions: THP-1, incubation time: 4 h
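Also: competitive chemoproteomic profiling in live THP-1 cells with an iodoacetamide desthiobiotin (IA-DTB) probe, comparing probe-labelled peptide intensities in compound-treated cells against DMSO-treated controls.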

Chain of UniProt Q9C0B9 (Q9C0B9 whole entry): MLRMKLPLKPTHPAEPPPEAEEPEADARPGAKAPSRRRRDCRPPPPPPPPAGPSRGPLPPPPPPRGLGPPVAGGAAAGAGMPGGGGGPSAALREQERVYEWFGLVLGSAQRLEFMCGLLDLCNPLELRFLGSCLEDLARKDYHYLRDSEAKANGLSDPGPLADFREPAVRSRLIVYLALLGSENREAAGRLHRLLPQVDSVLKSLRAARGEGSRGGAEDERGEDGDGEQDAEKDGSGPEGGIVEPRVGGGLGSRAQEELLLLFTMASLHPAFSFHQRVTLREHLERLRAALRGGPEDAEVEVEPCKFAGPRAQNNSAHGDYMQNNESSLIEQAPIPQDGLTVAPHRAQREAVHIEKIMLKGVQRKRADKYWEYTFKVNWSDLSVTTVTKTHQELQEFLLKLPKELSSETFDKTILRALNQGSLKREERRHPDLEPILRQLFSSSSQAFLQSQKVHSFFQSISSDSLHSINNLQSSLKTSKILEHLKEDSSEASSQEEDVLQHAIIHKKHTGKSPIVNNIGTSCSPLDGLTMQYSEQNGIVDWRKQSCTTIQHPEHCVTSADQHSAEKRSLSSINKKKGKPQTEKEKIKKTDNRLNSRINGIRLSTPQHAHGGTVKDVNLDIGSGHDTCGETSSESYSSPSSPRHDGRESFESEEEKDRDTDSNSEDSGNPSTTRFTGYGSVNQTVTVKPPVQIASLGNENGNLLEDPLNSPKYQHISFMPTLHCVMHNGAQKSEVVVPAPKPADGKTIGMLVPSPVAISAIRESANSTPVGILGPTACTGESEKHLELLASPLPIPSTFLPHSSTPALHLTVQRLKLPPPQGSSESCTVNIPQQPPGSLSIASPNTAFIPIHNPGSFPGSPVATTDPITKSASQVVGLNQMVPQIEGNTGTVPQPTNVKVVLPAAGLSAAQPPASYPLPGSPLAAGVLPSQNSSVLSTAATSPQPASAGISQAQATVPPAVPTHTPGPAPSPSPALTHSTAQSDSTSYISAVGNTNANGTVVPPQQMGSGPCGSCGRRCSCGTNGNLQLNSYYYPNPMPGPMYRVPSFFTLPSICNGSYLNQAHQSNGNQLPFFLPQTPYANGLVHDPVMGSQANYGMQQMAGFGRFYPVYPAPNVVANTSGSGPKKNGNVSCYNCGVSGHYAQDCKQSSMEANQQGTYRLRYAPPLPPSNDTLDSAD
Chain of UniProt Q9H582 (Q9H582 whole entry, looked up): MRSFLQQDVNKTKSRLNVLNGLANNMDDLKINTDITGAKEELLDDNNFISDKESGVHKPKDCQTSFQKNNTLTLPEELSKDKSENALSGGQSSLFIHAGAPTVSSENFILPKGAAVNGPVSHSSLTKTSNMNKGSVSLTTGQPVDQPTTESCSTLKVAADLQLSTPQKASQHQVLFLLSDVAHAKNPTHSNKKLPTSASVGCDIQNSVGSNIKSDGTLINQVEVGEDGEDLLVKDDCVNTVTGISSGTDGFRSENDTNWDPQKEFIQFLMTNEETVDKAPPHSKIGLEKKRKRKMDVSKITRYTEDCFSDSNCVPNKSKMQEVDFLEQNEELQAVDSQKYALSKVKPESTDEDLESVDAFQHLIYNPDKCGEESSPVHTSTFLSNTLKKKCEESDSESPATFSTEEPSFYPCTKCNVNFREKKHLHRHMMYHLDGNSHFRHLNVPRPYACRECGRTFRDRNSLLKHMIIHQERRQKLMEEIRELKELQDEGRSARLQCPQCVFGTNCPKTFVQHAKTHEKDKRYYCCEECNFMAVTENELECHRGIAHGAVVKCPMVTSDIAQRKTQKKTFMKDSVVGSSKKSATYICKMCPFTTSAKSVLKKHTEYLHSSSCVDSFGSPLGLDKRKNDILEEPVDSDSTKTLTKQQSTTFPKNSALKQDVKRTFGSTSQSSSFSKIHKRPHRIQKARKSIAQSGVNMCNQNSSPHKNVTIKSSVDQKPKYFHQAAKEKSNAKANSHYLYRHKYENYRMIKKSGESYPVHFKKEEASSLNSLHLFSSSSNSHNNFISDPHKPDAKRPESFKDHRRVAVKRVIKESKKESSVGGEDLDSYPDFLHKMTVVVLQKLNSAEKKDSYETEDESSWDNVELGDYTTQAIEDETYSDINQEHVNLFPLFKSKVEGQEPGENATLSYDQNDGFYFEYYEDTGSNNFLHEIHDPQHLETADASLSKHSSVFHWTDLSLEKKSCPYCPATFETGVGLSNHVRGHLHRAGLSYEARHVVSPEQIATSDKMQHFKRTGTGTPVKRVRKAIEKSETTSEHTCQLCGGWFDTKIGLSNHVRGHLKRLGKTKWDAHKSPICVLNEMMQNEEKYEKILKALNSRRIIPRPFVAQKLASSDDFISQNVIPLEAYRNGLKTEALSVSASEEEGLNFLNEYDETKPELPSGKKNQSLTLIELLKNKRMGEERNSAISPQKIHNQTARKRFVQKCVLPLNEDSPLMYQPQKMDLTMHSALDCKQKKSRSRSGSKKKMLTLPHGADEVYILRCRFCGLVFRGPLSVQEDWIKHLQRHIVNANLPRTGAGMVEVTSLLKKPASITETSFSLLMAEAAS
Chain of UniProt Q96GC6 (Q96GC6 whole entry, looked up): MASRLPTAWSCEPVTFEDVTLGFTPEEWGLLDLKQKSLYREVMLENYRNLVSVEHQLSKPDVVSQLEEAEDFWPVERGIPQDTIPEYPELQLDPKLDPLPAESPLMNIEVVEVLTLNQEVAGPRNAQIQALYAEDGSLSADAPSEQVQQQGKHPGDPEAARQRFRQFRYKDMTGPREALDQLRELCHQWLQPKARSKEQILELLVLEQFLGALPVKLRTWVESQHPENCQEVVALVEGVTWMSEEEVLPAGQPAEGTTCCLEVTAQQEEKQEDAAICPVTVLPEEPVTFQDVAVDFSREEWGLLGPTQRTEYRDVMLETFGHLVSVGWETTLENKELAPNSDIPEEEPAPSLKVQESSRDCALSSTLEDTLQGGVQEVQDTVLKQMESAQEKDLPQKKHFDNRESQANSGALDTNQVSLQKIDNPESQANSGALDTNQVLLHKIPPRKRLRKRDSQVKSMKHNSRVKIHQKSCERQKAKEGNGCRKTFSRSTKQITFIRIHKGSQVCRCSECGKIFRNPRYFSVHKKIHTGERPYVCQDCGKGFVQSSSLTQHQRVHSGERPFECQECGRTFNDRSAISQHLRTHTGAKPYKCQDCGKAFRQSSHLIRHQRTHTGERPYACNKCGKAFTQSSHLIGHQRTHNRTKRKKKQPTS
Chain of UniProt Q9C0B5 (Q9C0B5 whole entry): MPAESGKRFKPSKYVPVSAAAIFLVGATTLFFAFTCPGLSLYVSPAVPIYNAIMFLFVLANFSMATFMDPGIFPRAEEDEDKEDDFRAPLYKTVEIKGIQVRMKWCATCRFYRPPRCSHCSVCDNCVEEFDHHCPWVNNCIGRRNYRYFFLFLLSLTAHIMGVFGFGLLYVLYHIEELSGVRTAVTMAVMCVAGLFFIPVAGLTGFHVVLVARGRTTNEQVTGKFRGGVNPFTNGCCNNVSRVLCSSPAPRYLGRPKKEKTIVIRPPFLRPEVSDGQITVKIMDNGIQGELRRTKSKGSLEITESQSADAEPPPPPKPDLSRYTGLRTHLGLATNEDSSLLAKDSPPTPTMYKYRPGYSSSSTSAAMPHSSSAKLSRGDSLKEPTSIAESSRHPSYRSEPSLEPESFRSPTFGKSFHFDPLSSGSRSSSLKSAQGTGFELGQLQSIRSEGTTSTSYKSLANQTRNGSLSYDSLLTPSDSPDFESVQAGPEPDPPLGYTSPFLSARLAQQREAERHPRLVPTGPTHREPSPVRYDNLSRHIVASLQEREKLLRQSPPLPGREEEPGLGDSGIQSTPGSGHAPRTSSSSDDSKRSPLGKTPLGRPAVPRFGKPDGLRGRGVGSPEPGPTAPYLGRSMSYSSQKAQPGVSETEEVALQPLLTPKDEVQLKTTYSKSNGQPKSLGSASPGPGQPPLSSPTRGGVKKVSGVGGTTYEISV
Chain of UniProt Q8IWR0 (Q8IWR0 whole entry, looked up): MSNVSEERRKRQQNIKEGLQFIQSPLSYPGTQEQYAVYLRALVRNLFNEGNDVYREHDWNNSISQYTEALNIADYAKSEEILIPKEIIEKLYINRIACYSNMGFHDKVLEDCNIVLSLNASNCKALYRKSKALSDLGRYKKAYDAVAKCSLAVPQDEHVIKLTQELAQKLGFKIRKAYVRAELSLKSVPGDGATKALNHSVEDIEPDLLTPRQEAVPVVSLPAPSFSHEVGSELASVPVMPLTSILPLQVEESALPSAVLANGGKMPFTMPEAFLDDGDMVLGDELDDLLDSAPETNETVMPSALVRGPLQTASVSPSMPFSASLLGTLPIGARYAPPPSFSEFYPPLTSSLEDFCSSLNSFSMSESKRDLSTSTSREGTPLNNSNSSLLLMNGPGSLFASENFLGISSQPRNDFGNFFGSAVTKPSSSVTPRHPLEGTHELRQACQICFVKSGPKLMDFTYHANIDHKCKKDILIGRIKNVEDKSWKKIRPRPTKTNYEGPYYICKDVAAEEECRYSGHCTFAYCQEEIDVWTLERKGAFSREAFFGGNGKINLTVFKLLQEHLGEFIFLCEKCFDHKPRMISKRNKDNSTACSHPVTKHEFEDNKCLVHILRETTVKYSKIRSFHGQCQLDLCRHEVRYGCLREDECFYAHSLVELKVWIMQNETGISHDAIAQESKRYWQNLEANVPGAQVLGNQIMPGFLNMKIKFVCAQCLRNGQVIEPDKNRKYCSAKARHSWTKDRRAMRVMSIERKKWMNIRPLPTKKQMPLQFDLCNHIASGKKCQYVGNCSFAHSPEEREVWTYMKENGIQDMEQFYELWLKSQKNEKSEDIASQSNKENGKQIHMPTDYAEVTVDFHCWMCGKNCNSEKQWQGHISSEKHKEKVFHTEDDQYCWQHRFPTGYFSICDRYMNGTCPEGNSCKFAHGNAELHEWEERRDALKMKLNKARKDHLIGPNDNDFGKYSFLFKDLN
Chain of UniProt Q6FIF0 (Q6FIF0 whole entry, looked up): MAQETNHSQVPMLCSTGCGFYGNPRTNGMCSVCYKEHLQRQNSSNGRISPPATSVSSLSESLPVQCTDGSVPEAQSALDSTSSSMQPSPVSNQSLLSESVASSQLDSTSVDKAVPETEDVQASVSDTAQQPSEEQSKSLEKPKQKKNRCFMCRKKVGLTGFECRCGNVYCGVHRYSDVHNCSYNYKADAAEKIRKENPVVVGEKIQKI

In the case of “ZCCHC2_Q9C0B9_305_GGPEDAEVEVEPCK (UniProt Q9C0B9)”, the “probe-labelled cysteine peptide fold change” value (10 µM) is reported as -0.207 and the “probe-labelled cysteine peptide fold change” value (50 µM) is reported as -0.146.
In the case of “ZPR1_O75312_288+291_EVIIMATNCENCGHR (UniProt O75312)”, the “probe-labelled cysteine peptide fold change” value (10 µM) is reported as 0.0324 and the “probe-labelled cysteine peptide fold change” value (50 µM) is reported as -0.142.
“ZFYVE16_Q7Z3T8_1174_LDDLSLPSNPFLCGILIQK (UniProt Q7Z3T8)” was tested, and the “probe-labelled cysteine peptide fold change” value (10 µM) was 0.467.
In the case of “ZFAND2A_Q8N6M9_84_GQIPDVVVGDHIDRDCDSHPGK (UniProt Q8N6M9)”, the “probe-labelled cysteine peptide fold change” value (10 µM) is reported as 0.135 and the “probe-labelled cysteine peptide fold change” value (50 µM) is reported as 0.65.
In the case of “XPO5_Q9HAV4_706_SCDPGLEDPCGLNR (UniProt Q9HAV4)”, the “probe-labelled cysteine peptide fold change” value (10 µM) is reported as -0.0197 and the “probe-labelled cysteine peptide fold change” value (50 µM) is reported as 0.192.
“ZFP91_Q96JP5_313_CEMEGCGTVLAHPR (UniProt Q96JP5)” was tested, and the “probe-labelled cysteine peptide fold change” value (10 µM) was 0.134 and the “probe-labelled cysteine peptide fold change” value (50 µM) was 0.12.
With “ZFAND6_Q6FIF0_170_CGNVYCGVHR (UniProt Q6FIF0)” the “probe-labelled cysteine peptide fold change” value (10 µM) was 0.11 and the “probe-labelled cysteine peptide fold change” value (50 µM) was 0.139.
“ZFR_Q96KR1_812_NVNLVLLCSEK (UniProt Q96KR1)” was tested, and the “probe-labelled cysteine peptide fold change” value (10 µM) was 0.027 and the “probe-labelled cysteine peptide fold change” value (50 µM) was 0.201.
In the case of “ZC3H14_Q6PJT7_622_NGDECAYHHPISPCK (UniProt Q6PJT7)”, the “probe-labelled cysteine peptide fold change” value (10 µM) is reported as 0.00595 and the “probe-labelled cysteine peptide fold change” value (50 µM) is reported as -0.0399.
For “ZC3H7B_Q9UGR2_940_DMLLCPR (UniProt Q9UGR2)”, the “probe-labelled cysteine peptide fold change” value (10 µM) was -0.218 and the “probe-labelled cysteine peptide fold change” value (50 µM) was -0.591.
For “ZSCAN20_P17040_399_SSHPPGTCPFYEELEALVR (UniProt P17040)”, the “probe-labelled cysteine peptide fold change” value (10 µM) was 0.126 and the “probe-labelled cysteine peptide fold change” value (50 µM) was -0.102.
In the case of “ZNF644_Q9H582_152_GSVSLTTGQPVDQPTTESCSTLK (UniProt Q9H582)”, the “probe-labelled cysteine peptide fold change” value (10 µM) is reported as -0.0066 and the “probe-labelled cysteine peptide fold change” value (50 µM) is reported as -0.245.
“ZNF512_Q96ME7_445_CLLCQK (UniProt Q96ME7)” was tested, and the “probe-labelled cysteine peptide fold change” value (10 µM) was -0.0211 and the “probe-labelled cysteine peptide fold change” value (50 µM) was 0.165.
For “ZMYM3_Q14202_314_MTCAHCR (UniProt Q14202)”, the “probe-labelled cysteine peptide fold change” value (10 µM) was -0.0785 and the “probe-labelled cysteine peptide fold change” value (50 µM) was -0.168.
“XPO5_Q9HAV4_419_TDSPSCEYSR (UniProt Q9HAV4)” was tested, and the “probe-labelled cysteine peptide fold change” value (10 µM) was 0.235 and the “probe-labelled cysteine peptide fold change” value (50 µM) was 0.582.
With “ZNF622_Q969S3_6+9_ATYTCITCR (UniProt Q969S3)” the “probe-labelled cysteine peptide fold change” value (10 µM) was -0.688 and the “probe-labelled cysteine peptide fold change” value (50 µM) was -0.3.
“XPNPEP1_Q9NQW7_592_ECDWLNNYHLTCR (UniProt Q9NQW7)” was tested, and the “probe-labelled cysteine peptide fold change” value (10 µM) was -0.0936 and the “probe-labelled cysteine peptide fold change” value (50 µM) was -0.152.
For “ZFR_Q96KR1_5_MIPICPVVSFTYVPSR (UniProt Q96KR1)”, the “probe-labelled cysteine peptide fold change” value (10 µM) was 0.0256 and the “probe-labelled cysteine peptide fold change” value (50 µM) was 0.58.
“ZFYVE1_Q9HBF4_302_CGLDVPLSTLGPAVIIFHETVHTQLLGSDHPSEVPEK (UniProt Q9HBF4)” was tested, and the “probe-labelled cysteine peptide fold change” value (10 µM) was 0.26 and the “probe-labelled cysteine peptide fold change” value (50 µM) was -0.342.
For “ZC3HAV1_Q7Z2W4_78_YCQRPCDNLHLCK (UniProt Q7Z2W4)”, the “probe-labelled cysteine peptide fold change” value (10 µM) was 0.00707 and the “probe-labelled cysteine peptide fold change” value (50 µM) was 0.00938.
With “ZNF512B_Q96KM6_353_AADSLDTCPIPPK (UniProt Q96KM6)” the “probe-labelled cysteine peptide fold change” value (10 µM) was -0.0189 and the “probe-labelled cysteine peptide fold change” value (50 µM) was -0.139.
“ZC3HAV1_Q7Z2W4_168_QQICNQQPPCSR (UniProt Q7Z2W4)” was tested, and the “probe-labelled cysteine peptide fold change” value (10 µM) was -0.111 and the “probe-labelled cysteine peptide fold change” value (50 µM) was -0.15.
For “ZNF638_Q14966_428+431_IFPHLCSLCNVECSHLK (UniProt Q14966)”, the “probe-labelled cysteine peptide fold change” value (10 µM) was 0.287 and the “probe-labelled cysteine peptide fold change” value (50 µM) was -0.0116.
In the case of “ZMPSTE24_O75844_324_QGCKNEEVLAVLGHELGHWK (UniProt O75844)”, the “probe-labelled cysteine peptide fold change” value (10 µM) is reported as -0.56 and the “probe-labelled cysteine peptide fold change” value (50 µM) is reported as -0.365.
“ZNF106_Q9H2Y7_432_QCPTAEKPEQEHTPNK (UniProt Q9H2Y7)” was tested, and the “probe-labelled cysteine peptide fold change” value (10 µM) was -0.102 and the “probe-labelled cysteine peptide fold change” value (50 µM) was -0.282.
With “ZC3HAV1_Q7Z2W4_7+8_ADPEVCCFITK (UniProt Q7Z2W4)” the “probe-labelled cysteine peptide fold change” value (10 µM) was -0.269 and the “probe-labelled cysteine peptide fold change” value (50 µM) was -0.126.
In the case of “YWHAZ_P63104_25_LAEQAERYDDMAACMK (UniProt P63104)”, the “probe-labelled cysteine peptide fold change” value (10 µM) is reported as -0.454 and the “probe-labelled cysteine peptide fold change” value (50 µM) is reported as -0.365.
In the case of “XRN2_Q9H0D6_266_PCGLCNQFGHEVK (UniProt Q9H0D6)”, the “probe-labelled cysteine peptide fold change” value (10 µM) is reported as -0.0128 and the “probe-labelled cysteine peptide fold change” value (50 µM) is reported as 0.0752.
With “ZNF274_Q96GC6_565+568_VHSGERPFECQECGR (UniProt Q96GC6)” the “probe-labelled cysteine peptide fold change” value (10 µM) was -0.324 and the “probe-labelled cysteine peptide fold change” value (50 µM) was -0.142.
In the case of “ZNF691_Q5VV52_260_THTGERPYECTECGR (UniProt Q5VV52)”, the “probe-labelled cysteine peptide fold change” value (10 µM) is reported as 0.782 and the “probe-labelled cysteine peptide fold change” value (50 µM) is reported as 0.661.
For “ZNF83_P51522_375_CDECDK<|>ZNF678_Q99676_183_CDECDK (UniProt Q99676+P51522)”, the “probe-labelled cysteine peptide fold change” value (10 µM) was 0.445 and the “probe-labelled cysteine peptide fold change” value (50 µM) was 0.726.
In the case of “ZNF292_O60281_982_QENSTVEGSGEALVTDLHTPVEDTCNDLCHPGFQER (UniProt O60281)”, the “probe-labelled cysteine peptide fold change” value (10 µM) is reported as -0.201 and the “probe-labelled cysteine peptide fold change” value (50 µM) is reported as -0.183.
With “ZC3H7A_Q8IWR0_515_DVAAEEECR (UniProt Q8IWR0)” the “probe-labelled cysteine peptide fold change” value (10 µM) was 0.0596 and the “probe-labelled cysteine peptide fold change” value (50 µM) was 0.0208.
For XPO5_Q9HAV4_221_AQANCR (UniProt Q9HAV4), the “probe-labelled cysteine peptide fold change” value (10 µM) was 0.59 and the “probe-labelled cysteine peptide fold change” value (50 µM) was 0.537.
“ZMYM4_Q5VZL5_1499_SCVPNSPMWYSTFPIDPGTLDTMLTR (UniProt Q5VZL5)” was tested, and the “probe-labelled cysteine peptide fold change” value (10 µM) was -0.57 and the “probe-labelled cysteine peptide fold change” value (50 µM) was -0.69.
With “ZC3HAV1_Q7Z2W4_7_ADPEVCCFITK (UniProt Q7Z2W4)” the “probe-labelled cysteine peptide fold change” value (10 µM) was 0.0667 and the “probe-labelled cysteine peptide fold change” value (50 µM) was 0.239.
“ZDHHC5_Q9C0B5_245_VLCSSPAPR (UniProt Q9C0B5)” was tested, and the “probe-labelled cysteine peptide fold change” value (10 µM) was 0.109 and the “probe-labelled cysteine peptide fold change” value (50 µM) was 0.121.

From the supplement of paper PMC12067093, “Discovery and optimisation of a covalent ligand for TRIM25 and its application to targeted protein ubiquitination” (Chemical Science, 2025)
